Results taken from PubChem BioAssay AID624296 (National Center for Advancing Translational Sciences (NCATS), 2012).
Screen size: about 350,000 compounds; about 9,900 (2.8%) were called active. This list was built around the results that the source calls inconclusive (neither active nor inactive); the mix of calls is not that of the screen. Calls follow the shape of the dose curve; as a rule, active = well fitted activation curve with a large enough effect; inconclusive = small, poorly fitted or top-dose-only effect; inactive = no such curve, though single readings can be large or run the other way. No potency is given beside an inconclusive call; the fits are too rough.
Potency is read from the fitted curve at half-maximal effect; tags tell the direction and shape of the fitted curve.

Test: A quantitative high throughput screen for small molecules that induce DNA re-replication in MCF 10a normal breast cells. Also: nearly all actives have a fitted effect of over 50% in size.
Settings: MCF 10A DNA re-replication, Hoechst nuclear intensity, 48 h; series mostly up to 46.1 µM
For `Cc1cccc(C(=O)Nc2ccccc2C(=O)OCc2c(C)noc2C)c1`, the Potency was “inactive”.
In the case of `COc1ccccc1C(=O)NC(=O)COC(=O)C1CC1C` (centres undefined), the Potency is reported as “inactive”.
With `NC(=O)c1sc2nc(-c3cccs3)ccc2c1N` the Potency was inconclusive [activator, single point].
In the case of `O=C(C[C@@H]1C/C=C\C[C@H](Cc2ccc(F)cc2)C(=O)OCCNC1=O)N[C@H](CO)Cc1ccccc1`, the Potency is reported as “inactive”.
For `Cc1nc2ccccn2c1C(=O)NNS(=O)(=O)c1ccc(C(C)(C)C)cc1`, the Potency was “inactive”.
In the case of `COC(=O)c1ccc(NC(=O)CC2C(=O)N(c3ccc(C)cc3)C(=O)N2CC(C)C)cc1` (centres undefined), the Potency is reported as “inactive”.
In the case of `CC(=O)N1CCc2cc(S(=O)(=O)CCC(=O)Nc3ccc4c(c3)OCCO4)ccc21`, the Potency is reported as inconclusive [activator, partial curve, poor fit].
For `CC(=O)C1=C(C)Nc2ncnn2C1c1ccc(O)cc1` (centres undefined), the Potency was inconclusive [activator, single point].
For `CCCCCC(=O)NNC(=S)NC(=O)c1ccc([N+](=O)[O-])cc1`, the Potency was inconclusive [activator, partial curve, poor fit].
In the case of `Nc1nc(CN2CCN(c3cccc(Cl)c3)CC2)nc(N2CCCc3ccccc32)n1`, the Potency is reported as inconclusive [activator, partial curve, poor fit].
With `CCOc1ccc(CCNC(=O)Cn2c(=O)c3cccn3c3cccnc32)cc1` the Potency was “inactive”.
For `O=C(/C=C/c1ccc(Cl)c([N+](=O)[O-])c1)c1cccnc1`, the Potency was active: 5.17 µM.
With `COc1ccc(-c2csc3ncnc(N4CCN(c5ccccc5)CC4)c23)cc1` the Potency was inconclusive [activator, single point].
In the case of `CCCn1c(SCC(=O)Nc2nc3ccccc3s2)nc2c1c(=O)n(C)c(=O)n2C`, the Potency is reported as inconclusive [activator, partial curve, poor fit].
For `OC(COc1ccc(OCc2ccccc2)cc1)CN1CCOCC1` (centres undefined), the Potency was active: 9.2 µM.
With `CCC(C)(C)c1ccc(OCCCC[n+]2ccccc2)c(C(C)(C)CC)c1` the Potency was inconclusive [activator, partial curve, poor fit].
With `COc1ccc(NC(=O)c2ccccc2Oc2ccccc2)c(OC)c1` the Potency was active: 25.9 µM.
For `CC(C)(C)CN1CCN(Cc2cc3ccccc3[nH]2)CC1CCO` (centres undefined), the Potency was active: 0.651 µM.
For `CC(C)(C)C1CCc2c(sc3nc(SCC(N)=O)nc(N)c23)C1` (centres undefined), the Potency was inconclusive [activator, partial curve, poor fit].
In the case of `CCCN1C(=O)c2cc(C(=O)NC3CCCCCC3)ccc2C1O` (centres undefined), the Potency is reported as inconclusive [activator, single point].
For `COc1ccc(NC(=O)CCSc2nnnn2C)cc1`, the Potency was “inactive”.
For `CCCCn1c(N)c(N(CCOC)C(=O)c2cnc(C)cn2)c(=O)[nH]c1=O`, the Potency was “inactive”.
In the case of `CC(C)CN1CCN(Cc2cc(F)ccc2-n2cccn2)CC1CCO` (centres undefined), the Potency is reported as “inactive”.
In the case of `COc1ccc2nc(N3C(=O)/C(=C/c4ccc(Cl)cc4)NC3=S)sc2c1`, the Potency is reported as “inactive”.
With `Cc1ccccc1OCCC(=O)Nc1cccc(S(=O)(=O)Nc2ccccc2Cl)c1` the Potency was inconclusive [activator, single point].
In the case of `O=C(Cn1nc(-c2ccccc2)oc1=O)OCC(=O)c1ccccc1`, the Potency is reported as “inactive”.
For `Cc1ccc(N(C)C(=O)N2CCN(S(=O)(=O)c3ccc4ccccc4c3)CC2)cc1`, the Potency was inconclusive [activator, partial curve, poor fit].
For `CC(=O)Cc1nsc(NC(=O)c2ccc(COc3cccc(C)c3)o2)n1`, the Potency was inconclusive [activator, partial curve, poor fit].
With `CC1(C)Cc2ccccc2-c2n[nH]c(=S)n21` the Potency was “inactive”.
For `N#CC1=C(N)Oc2c(ccc3ccccc23)C1c1ccsc1` (centres undefined), the Potency was inconclusive [activator, full curve, poor fit].
In the case of `c1cnc2ccc(-c3ccc4ncccc4c3)cc2c1`, the Potency is reported as “inactive”.
In the case of `O=C(CNc1cccc([N+](=O)[O-])c1)N1CCN(S(=O)(=O)c2ccc(Cl)cc2)CC1`, the Potency is reported as “inactive”.
In the case of `O=C(Cc1cccc(NC(=O)C2CCN(C(=O)C3CC3)CC2)c1)Nc1cccc(C(=O)N2CCCCC2)c1`, the Potency is reported as “inactive”.
In the case of `CSc1nc(N)c(C#N)c(-c2ccc(Cl)cc2)c1C#N`, the Potency is reported as inconclusive [activator, partial curve, poor fit].
With `CN(C)C(=O)CCc1ccc2c3c([nH]c2c1)[C@]1(C)[C@@H](C(=O)N2CCOCC2)C[C@H](CC(=O)NCCN2CCOCC2)C(=O)N1CC3` the Potency was inconclusive [activator, full curve].
With `O=C(CSc1nnc(-c2ccco2)o1)c1ccc(O)cc1O` the Potency was inconclusive [activator, partial curve, poor fit].
In the case of `Cc1ccc(-c2cc(C(=O)N3CCN(c4ccccc4O)CC3)c3ccccc3n2)cc1`, the Potency is reported as “inactive”.
In the case of `O=C(c1ccc(COc2ccc3ccccc3c2)o1)N1N=C(C(F)F)CC1(O)C(F)F` (centres undefined), the Potency is reported as inconclusive [activator, single point].
With `O=c1cnn(Cc2c(Cl)cccc2Cl)c2ccccc12` the Potency was inconclusive [activator, single point].
For `Cc1ccc(C2C3=C(CCCC3=O)Nc3nc(SCC(=O)NCc4ccco4)[nH]c(=O)c32)cc1` (centres undefined), the Potency was “inactive”.
For `O=C(NCCNC(=O)c1cc(OCC(F)(F)F)ccc1OCC(F)(F)F)Nc1cccc(C(F)(F)F)c1`, the Potency was inconclusive [activator, single point].
For `COc1ccc(/[N+]([O-])=C/c2ccco2)cc1`, the Potency was inconclusive [activator, full curve, poor fit].
In the case of `O=C(CN1CCN(c2ccc(O)cc2)CC1)Nc1ccc(S(=O)(=O)N2CCCC2)cc1`, the Potency is reported as “inactive”.
In the case of `C(=C/c1nccc2c1[nH]c1ccccc12)/c1ccc2c(c1)OCO2`, the Potency is reported as inconclusive [activator, partial curve, poor fit].
With `Cn1cc(S(=O)(=O)N2CCCC2)cc1C(=O)N1CCN(c2ccccc2)CC1` the Potency was inconclusive [activator, single point].
In the case of `CCOc1ccc(S(=O)(=O)N2CCOCC2)cc1NC(=O)CSCc1ccc(C)cc1`, the Potency is reported as inconclusive [activator, single point].
With `O=S(=O)(c1ccccc1)N1CCN(Cc2ccccc2C(F)(F)F)CC1` the Potency was inconclusive [activator, partial curve, poor fit].
With `C[C@@H](CSc1ccccc1)CN1CC[C@H](C(C)(C)C)CCC1=O` the Potency was inconclusive [activator, partial curve, poor fit].
In the case of `CC(C)CNC(=O)C1CCN(Cc2ccc(OCc3ccccc3)cc2)CC1`, the Potency is reported as inconclusive [activator, single point].
For `CN=c1c([N+](=O)[O-])nn(-c2ccc3c(c2)OCCO3)n1O`, the Potency was “inactive”.
In the case of `O=C(O)C(=O)Nc1ccc(NC(=O)C(c2ccccc2)c2ccccc2)cc1`, the Potency is reported as “inactive”.
For `Cc1c(NC(=O)CN2C(=O)NC(C)(c3ccccc3)C2=O)c(=O)n(-c2ccccc2)n1C` (centres undefined), the Potency was “inactive”.
For `Cc1cc(C)c(OCC(=O)N/N=C/c2ccc3c(c2)OCO3)c(C)c1`, the Potency was active: 2.91 µM.
With `CCCC1/C(=N/O)CC(c2ccccc2)NC1c1ccccc1` (centres undefined) the Potency was “inactive”.
With `Cc1cnc(C(=O)OC(C)C(=O)Nc2ccc3c(c2)OCCO3)cn1` (centres undefined) the Potency was inconclusive [activator, single point].
With `Cc1ccc(Cc2cnc(NC(=O)/C(C#N)=C/c3ccc(-c4ccc([N+](=O)[O-])cc4)o3)s2)cc1` the Potency was “inactive”.
With `CC1(C)CC(=O)C2=C(C1)N(c1ccc(F)cc1)C(N)=C(C#N)C2c1cccs1` (centres undefined) the Potency was active: 18.4 µM.
With `Cc1ccc(Nc2nc(N)c([N+](=O)[O-])c(NCc3ccco3)n2)cc1` the Potency was inconclusive [activator, single point].
In the case of `CN(C)CCC(=O)c1ccc(F)cc1`, the Potency is reported as inconclusive [activator, single point].
In the case of `COc1ccc(OC)c(C(=O)N2CCC(n3nccc3NC(=O)CC(C)C)CC2)c1`, the Potency is reported as “inactive”.
With `CCCC(C(=O)NC1=NCCS1)c1ccccc1` (centres undefined) the Potency was inconclusive [activator, partial curve, poor fit].
In the case of `Cc1ccc(-c2ccc([C@H]3[C@@H]4C=CCC[C@@]4(C)C(=O)N3Cc3ccccc3)c(F)c2)cc1`, the Potency is reported as inconclusive [activator, single point].
In the case of `CC[N+]1(CC)CC2CCC(C)(C1)C2(C)C` (centres undefined), the Potency is reported as inconclusive [activator, full curve, poor fit].
For `Nc1scc(-c2ccncc2)c1Cl`, the Potency was inconclusive [activator, single point].
With `C#CCOCCOCCOCCNc1nc(N2CCN(C(=O)[C@H](CCCN=C(N)N)n3cc(C(N)[C@@H](C)CC)nn3)CC2)nc(N2CCN(C(=O)[C@H](CCC(=O)O)n3cc([C@@H](N)CO)nn3)CC2)n1` (some centres undefined) the Potency was “inactive”.
In the case of `Cc1ccc(S(=O)(=O)N2C[C@@H]3[C@H]4CC[C@H](C4)[C@@H]3[C@@H](C)C2CC(=O)c2ccccc2)cc1` (some centres undefined), the Potency is reported as inconclusive [activator, partial curve, poor fit].
With `CC(C)(C)c1cc(NC(=O)CSc2nnc(NCc3ccccc3)s2)n(-c2ccccc2)n1` the Potency was inconclusive [activator, single point].
With `CCCCNC(=O)c1onc(CSc2ccc(F)c(F)c2)c1C(=O)NCCCC` the Potency was inconclusive [activator, partial curve, poor fit].
In the case of `N#CCCCN1C(=O)C(=C(C#N)C#N)c2ccccc21`, the Potency is reported as inconclusive [activator, single point].
